# Measurements published in the supplement of paper PMC8728848.
# This is one part of the list.
# What was measured:
# Experiment in all cases: glycan array binding signal (z-score within array); higher = stronger binding
# Settings in all cases: glycan notation: IUPAC condensed, linker removed
# [1] = molecular target: Fuc(a1-2)Gal
# Summary of the method: (§1)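 Glycan array data came from 3228 arrays in the Consortium for Functional Glycomics database, and only arrays with an available protein sequence were kept. Glycan names were put into IUPAC-condensed notation, and columns mapping to the same glycan were averaged. The binding signal is a within-array Z-score, averaged across arrays of one protein sequence run at different concentrations or buffers and across linkers. A negative Z-score can be read as non-binding.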
# [2] = molecular target: Fuc(a1-2)Gal(b1-3)GalNAc
# Summary of the method: as §1
# [3] = molecular target: Fuc(a1-2)Gal(b1-3)GalNAc(a1-3)[Fuc(a1-2)]Gal(b1-4)Glc
# Summary of the method: as §1
# [4] = molecular target: Fuc(a1-2)Gal(b1-3)GalNAc(a1-3)[Fuc(a1-2)]Gal(b1-4)GlcNAc
# Summary of the method: as §1
# [5] = molecular target: Fuc(a1-2)Gal(b1-3)GalNAc(b1-3)Gal
# Summary of the method: as §1
# [6] = molecular target: Fuc(a1-2)Gal(b1-3)GalNAc(b1-3)Gal(a1-4)Gal(b1-4)Glc
# Summary of the method: as §1
# [7] = molecular target: Fuc(a1-2)Gal(b1-3)GalNAc(b1-4)[Neu5Ac(a2-3)]Gal(b1-4)Glc
# Summary of the method: as §1
# [8] = molecular target: Fuc(a1-2)Gal(b1-3)GlcNAc
# Summary of the method: as §1
# [9] = molecular target: Fuc(a1-2)Gal(b1-3)GlcNAc(b1-2)Man(a1-3)[Fuc(a1-2)Gal(b1-3)GlcNAc(b1-2)Man(a1-6)]Man(b1-4)GlcNAc(b1-4)GlcNAc
# Summary of the method: as §1
# [10] = molecular target: Fuc(a1-2)Gal(b1-3)GlcNAc(b1-2)Man(a1-3)[Fuc(a1-2)Gal(b1-3)GlcNAc(b1-2)Man(a1-6)]Man(b1-4)GlcNAc(b1-4)[Fuc(a1-6)]GlcNAc
# Summary of the method: as §1
# [11] = molecular target: Fuc(a1-2)Gal(b1-3)GlcNAc(b1-3)Gal(b1-4)Glc
# Summary of the method: as §1
# [12] = molecular target: Fuc(a1-2)Gal(b1-3)GlcNAc(b1-3)GalNAc
# Summary of the method: as §1
# [13] = molecular target: Fuc(a1-2)Gal(b1-3)GlcNAc(b1-3)[Fuc(a1-2)Gal(b1-3)GlcNAc(b1-6)]GalNAc
# Summary of the method: as §1
# [14] = molecular target: Fuc(a1-2)Gal(b1-3)GlcNAc(b1-3)[Gal(b1-4)GlcNAc(b1-6)]Gal(b1-4)Glc
# Summary of the method: as §1
# [15] = molecular target: Fuc(a1-2)Gal(b1-3)GlcNAc(b1-3)[Neu5Ac(a2-6)Gal(b1-4)GlcNAc(b1-6)]Gal(b1-4)Glc
# Summary of the method: as §1
# [16] = molecular target: Fuc(a1-2)Gal(b1-3)GlcNAc6S
# Summary of the method: as §1
# [17] = molecular target: Fuc(a1-2)Gal(b1-3)[Fuc(a1-4)]GlcNAc
# Summary of the method: as §1
# [18] = molecular target: Fuc(a1-2)Gal(b1-3)[Fuc(a1-4)]GlcNAc(b1-2)Man(a1-3)[Fuc(a1-2)Gal(b1-3)[Fuc(a1-4)]GlcNAc(b1-2)Man(a1-3)]Man(b1-4)GlcNAc(b1-4)GlcNAc
# Summary of the method: as §1
# [19] = molecular target: Fuc(a1-2)Gal(b1-3)[Fuc(a1-4)]GlcNAc(b1-2)Man(a1-3)[Fuc(a1-2)Gal(b1-3)[Fuc(a1-4)]GlcNAc(b1-2)Man(a1-6)]Man(b1-4)GlcNAc(b1-4)[Fuc(a1-6)]GlcNAc(b1-4)[Fuc(a1-6)]GlcNAc
# Summary of the method: as §1
# [20] = molecular target: Fuc(a1-2)Gal(b1-3)[Fuc(a1-4)]GlcNAc(b1-3)[Fuc(a1-3)[Gal(b1-4)]GlcNAc(b1-6)]Gal(b1-4)Glc
# Summary of the method: as §1
# [21] = molecular target: Fuc(a1-2)Gal(b1-3)[Fuc(a1-4)]GlcNAc(b1-3)[Gal(b1-4)GlcNAc(b1-6)]Gal(b1-4)Glc
# Summary of the method: as §1
# [22] = molecular target: Fuc(a1-2)Gal(b1-4)Fuc(a1-3)]GlcNAc(b1-2)Man(a1-3)[Fuc(a1-2)Gal(b1-4)[Fuc(a1-3)]GlcNAc(b1-2)Man(a1-6)]Man(b1-4)GlcNAc(b1-4)GlcNAc
# Summary of the method: as §1
# [23] = molecular target: Fuc(a1-2)Gal(b1-4)Glc
# Summary of the method: as §1
# [24] = molecular target: Fuc(a1-2)Gal(b1-4)Glc6S
# Summary of the method: as §1
# [25] = molecular target: Fuc(a1-2)Gal(b1-4)GlcNAc
# Summary of the method: as §1
# [26] = molecular target: Fuc(a1-2)Gal(b1-4)GlcNAc(b1-2)Man
# Summary of the method: as §1
# [27] = molecular target: Fuc(a1-2)Gal(b1-4)GlcNAc(b1-2)Man(a1-3)[Fuc(a1-2)Gal(b1-4)GlcNAc(b1-2)Man(a1-6)]Man(b1-4)GlcNAc(b1-4)GlcNAc
# Summary of the method: as §1
# [28] = molecular target: Fuc(a1-2)Gal(b1-4)GlcNAc(b1-2)Man(a1-3)[Fuc(a1-2)Gal(b1-4)GlcNAc(b1-2)Man(a1-6)]Man(b1-4)GlcNAc(b1-4)[Fuc(a1-6)]GlcNAc
# Summary of the method: as §1
# [29] = molecular target: Fuc(a1-2)Gal(b1-4)GlcNAc(b1-2)[Fuc(a1-2)Gal(b1-4)GlcNAc(b1-4)]Man(a1-3)[Fuc(a1-2)Gal(b1-4)GlcNAc(b1-2)Man(a1-6)]Man(b1-4)GlcNAc(b1-4)GlcNAc
# Summary of the method: as §1
# [30] = molecular target: Fuc(a1-2)Gal(b1-4)GlcNAc(b1-3)Gal(b1-4)GlcNAc
# Summary of the method: as §1
# [31] = molecular target: Fuc(a1-2)Gal(b1-4)GlcNAc(b1-3)Gal(b1-4)GlcNAc(b1-2)Man(a1-3)[Fuc(a1-2)Gal(b1-4)GlcNAc(b1-3)Gal(b1-4)GlcNAc(b1-2)Man(a1-6)]Man(b1-4)GlcNAc(b1-4)GlcNAc
# Summary of the method: as §1
# [32] = molecular target: Fuc(a1-2)Gal(b1-4)GlcNAc(b1-3)Gal(b1-4)GlcNAc(b1-3)Gal(b1-4)GlcNAc
# Summary of the method: as §1
# [33] = molecular target: Fuc(a1-2)Gal(b1-4)GlcNAc(b1-3)GalNAc
# Summary of the method: as §1
# [34] = molecular target: Fuc(a1-2)Gal(b1-4)GlcNAc(b1-3)[Fuc(a1-2)Gal(b1-4)GlcNAc(b1-6)]GalNAc
# Summary of the method: as §1
# [35] = molecular target: Fuc(a1-2)Gal(b1-4)GlcNAc(b1-3)[Fuc(a1-3)[Gal(b1-4)]GlcNAc(b1-6)]Gal(b1-4)Glc
# Summary of the method: as §1
# [36] = molecular target: Fuc(a1-2)Gal(b1-4)GlcNAc(b1-6)GalNAc
# Summary of the method: as §1
# [37] = molecular target: Fuc(a1-2)Gal(b1-4)GlcNAc6S
# Summary of the method: as §1
# [38] = molecular target: Fuc(a1-2)Gal(b1-4)[Fuc(a1-3)]GlcNAc
# Summary of the method: as §1
# [39] = molecular target: Fuc(a1-2)Gal(b1-4)[Fuc(a1-3)]GlcNAc(b1-2)Man(a1-3)[Fuc(a1-2)Gal(b1-4)[Fuc(a1-3)]GlcNAc(b1-2)Man(a1-6)]Man(b1-4)GlcNAc(b1-4)[Fuc(a1-6)]GlcNAc
# Summary of the method: as §1
# [40] = molecular target: Fuc(a1-2)Gal(b1-4)[Fuc(a1-3)]GlcNAc(b1-2)[Fuc(a1-2)Gal(b1-4)[Fuc(a1-3)]GlcNAc(b1-4)]Man(a1-3)[Fuc(a1-2)Gal(b1-4)[Fuc(a1-3)]GlcNAc(b1-2)Man(a1-6)]Man(b1-4)GlcNAc(b1-4)GlcNAc
# Summary of the method: as §1
# [41] = molecular target: Fuc(a1-2)Gal(b1-4)[Fuc(a1-3)]GlcNAc(b1-3)Gal(b1-4)[Fuc(a1-3)]GlcNAc
# Summary of the method: as §1
# [42] = molecular target: Fuc(a1-2)Gal(b1-4)[Fuc(a1-3)]GlcNAc(b1-3)Gal(b1-4)[Fuc(a1-3)]GlcNAc(b1-3)Gal(b1-4)[Fuc(a1-3)]GlcNAc
# Summary of the method: as §1
# [43] = molecular target: Fuc(a1-2)Gal(b1-4)[Fuc(a1-3)]GlcNAc(b1-3)GalNAc
# Summary of the method: as §1
# [44] = molecular target: Fuc(a1-2)Gal(b1-4)[Fuc(a1-3)]GlcNAc(b1-3)[Neu5Ac(a2-6)Gal(b1-4)GlcNAc(b1-6)]Gal(b1-4)Glc
# Summary of the method: as §1
# [45] = molecular target: Fuc(a1-2)Gal3S(b1-4)GlcNAc
# Summary of the method: as §1
binder,measurement,setting,value
"PVL (Psathyrella velutina), Q309D1_9AGAR (protein) MSVVVISQALPVPTRIPGVADLVGFGNGGVYIIRNSLLIQVVKVINNFGYDAGGWRVEKHVRLLADTTGDNQPDVVGFGENGVWISTNNGNNTFVDPPKMVLANFAYAAGGWRVEKHIRFMADLRKTGRADIVGFGDGGIYISRNNGGGQFAPAQLALNNFGYAQGWRLDRHLRFLADVTGDGLLDVVGFGENQVYIARNSGNGTFQPAQAVVNNFCIGAGGWTISAHPRVVADLTGDRKADILGFGVAGVYTSLNNGNGTFGAVNLVLKDFGVNSGWRVEKHVRCVSSLTNKKVGDIIGFGDAGVYVALNNGNGTFGPVKRVIDNFGYNQGWRVDKHPRFVVDLTGDGCADIVGFGENSVWACMNKGDGTFGPIMKLIDDMTVSKGWTLQKTVRYAANLYL",glycan array binding signal (z-score),[1],-0.41
same,glycan array binding signal (z-score),[2],-0.378
same,glycan array binding signal (z-score),[3],-0.371
same,glycan array binding signal (z-score),[4],-0.371
same,glycan array binding signal (z-score),[5],-0.367
same,glycan array binding signal (z-score),[6],-0.356
same,glycan array binding signal (z-score),[7],-0.334
same,glycan array binding signal (z-score),[8],-0.372
same,glycan array binding signal (z-score),[9],-0.345
same,glycan array binding signal (z-score),[10],-0.362
same,glycan array binding signal (z-score),[11],-0.371
same,glycan array binding signal (z-score),[12],-0.365
same,glycan array binding signal (z-score),[13],-0.366
same,glycan array binding signal (z-score),[14],-0.366
same,glycan array binding signal (z-score),[15],-0.367
same,glycan array binding signal (z-score),[16],-0.361
same,glycan array binding signal (z-score),[17],-0.371
same,glycan array binding signal (z-score),[18],-0.362
same,glycan array binding signal (z-score),[19],-0.319
same,glycan array binding signal (z-score),[20],-0.372
same,glycan array binding signal (z-score),[21],-0.374
same,glycan array binding signal (z-score),[22],-0.34
same,glycan array binding signal (z-score),[23],-0.438
same,glycan array binding signal (z-score),[24],-0.371
same,glycan array binding signal (z-score),[25],-0.345
same,glycan array binding signal (z-score),[26],-0.366
same,glycan array binding signal (z-score),[27],-0.349
same,glycan array binding signal (z-score),[28],-0.365
same,glycan array binding signal (z-score),[29],-0.369
same,glycan array binding signal (z-score),[30],-0.283
same,glycan array binding signal (z-score),[31],0.321
same,glycan array binding signal (z-score),[32],-0.133
same,glycan array binding signal (z-score),[33],-0.347
same,glycan array binding signal (z-score),[34],-0.206
same,glycan array binding signal (z-score),[35],-0.364
same,glycan array binding signal (z-score),[36],-0.353
same,glycan array binding signal (z-score),[37],-0.35
same,glycan array binding signal (z-score),[38],-0.367
same,glycan array binding signal (z-score),[39],-0.332
same,glycan array binding signal (z-score),[40],-0.37
same,glycan array binding signal (z-score),[41],-0.361
same,glycan array binding signal (z-score),[42],-0.344
same,glycan array binding signal (z-score),[43],-0.371
same,glycan array binding signal (z-score),[44],-0.366
same,glycan array binding signal (z-score),[45],-0.37
